The list shows a part of the results. The exact form of the protein is not confirmed.

In this test the target is GST-SBP-ILF3 (Homo sapiens) (UniProt Q12906). Description: targeted RNA Bind-n-Seq. The settings on record: RBNS binding buffer: 25 mM Tris pH 7.5, 150 mM KCl, 3 mM MgCl2, 0.1% Tween, 0.5 mg/mL BSA, 1 mM DTT; 27 nM protein, 750 pM RNA pool; temperature not stated; high values mean tight binding; sequences stand for … in GGGUAAAAGCGAGGUGAA…CGGGACAAGUAUUAUGGG
On to “GUUGUGUGUGUUGGCUCCUAACACACGCAA [gtspaired]”, for which the binding signal (log2 fold change) was -0.265. In the case of “UUUUUUUUUUGAGAGGGGAACCCUCUCCUA [tttttgagapaired]”, the binding signal (log2 fold change) amounted to 0.556. Under “UUUUUUUUUUGAGACGGGCCCCGUCUCCUG [tttttgagapaired]” stands 0.912; under “UUUUUUUUUUGAGAUCGAUCCGAUCUCCUA [tttttgagapaired]”, -0.0508.

As for “UUUUUUUUUUGAGAGGGCGUCCCUCUUCUA [tttttgagapaired]”, the binding signal (log2 fold change) was determined as 0.666. “UUUUUUUUUUGAGAUGGAUGCCAUUUCCUA [tttttgagapaired]”: the binding signal (log2 fold change) came out at 0.246. Next, “GUGUGUGGUGUUGGCCCCUAACACCGCACG [gtspaired]”: -0.127; “UUUUUUUUUUGAGAACGAGGCGUUCUCCUA [tttttgagapaired]”: 0.0878.

With “UUUUUUUUUUGAGAUCGGCGCGAUCUCCGG [tttttgagapaired]”, the binding signal (log2 fold change) was 0.413. On to “UUUUUUUUUUGAGAGUGGGGCAUUCUCCAG [tttttgagapaired]”, for which the binding signal (log2 fold change) was 0.522. Under “UUUUUUUUUUGAGAUGGUAUCUAUCUCCUA [tttttgagapaired]” stands 0.00572. Under “UUUUUUUUUUGAGAUGGUCUCCAUCUCCAG [tttttgagapaired]” stands 0.342; under “UUUUUUUUUUGAGAUGGACUCCAUCUCCUA [tttttgagapaired]”, 0.195; under “GUGUGGUGUGUUGGAUCCUAACACAUCGCA [gtspaired]”, -0.628. Under “UUUUUUUUUUGAGACGGGAGCCGUCUCCUA [tttttgagapaired]” stands 0.236. Turning to “UUUUUUUUUUGAGAUCGGCACGAUCUUCUG [tttttgagapaired]”, the binding signal (log2 fold change) amounted to 0.0444. With “GGUGUGUGUGUUGGAUCCUAACACAUACGC [gtspaired]”, the binding signal (log2 fold change) is -0.707.

For “GGUGUGUGUGUUGGAAUCUAACACAUACGC [gtspaired]”, the binding signal (log2 fold change) was -0.841. Next, “GUUGGUGGUGUUGGUGCCUAACACCGCCAG [gtspaired]”: -0.561. Under “UUUUUUUUUUGAGAGGGGACCCCUUUCCAG [tttttgagapaired]” stands 0.447. Under “UUUUUUUUUUGAGAGCGGGCCGCUCUCCUG [tttttgagapaired]” stands 0.786; under “GGUUGUGGUGUUGGCGCCUAACACCGCGAC [gtspaired]”, -0.706.

As for “UUUUUUUUUUGAGAGGGGUCCCCUCUCCAG [tttttgagapaired]”, the binding signal (log2 fold change) amounted to 1.01. Under “GUUGUGUGUGUUGGCCCCUAACACACGCAG [gtspaired]” stands -0.117; under “GUUGGUGGUGUUGGUUCCUAACACCGCCAG [gtspaired]”, -0.395; under “UUUUUUUUUUGAGAGGGACUCCUUCUCCUA [tttttgagapaired]”, -0.0271.

In the case of “UUUUUUUUUUGAGAACGAUUCGUUCUCCGG [tttttgagapaired]”, the binding signal (log2 fold change) is -0.0578. Next, “UUUUUUUUUUGAGAUCGACACGAUCUCCAG [tttttgagapaired]”: 0.0556; “GUGUGUGGUGUUGGUACCUAACACCGCAUA [gtspaired]”: -0.405; “UUUUUUUUUUGAGACCGCGGCGGUCUCCAG [tttttgagapaired]”: 0.983. Under “UUUUUUUUUUGAGAUGGGGACUAUCUUCUA [tttttgagapaired]” stands 0.283; under “UUUUUUUUUUGAGAACGUAGCGUUCUUCUA [tttttgagapaired]”, 0.177; under “UUUUUUUUUUGAGACUGCUUCAGUCUCCUG [tttttgagapaired]”, 0.509.

Regarding “UUUUUUUUUUGAGACUGAUUCAGUCUCCGG [tttttgagapaired]”, the binding signal (log2 fold change) is -0.179. Next, “UUUUUUUUUUGAGACCGUGUCGGUCUCCUA [tttttgagapaired]”: 0.693; “UUUUUUUUUUGAGAGGGAAGCCCUCUCCUA [tttttgagapaired]”: 0.307. “UUUUUUUUUUGAGAUGGCGACCAUCUCCAG [tttttgagapaired]”: the binding signal (log2 fold change) was 0.334. Under “UUUUUUUUUUGAGAUCGAAACGAUCUUCUG [tttttgagapaired]” stands -0.307; under “UUUUUUUUUUGAGAUGGAAACCAUCUCCGG [tttttgagapaired]”, -0.049. Next, “UUUUUUUUUUGAGAAGGGUCCCUUCUCCAG [tttttgagapaired]”: 0.144. Next, “GUGUGGUGUGUUGGUCUCUAACACACCACG [gtspaired]”: -0.5; “GUUGGUGGUGUUGGAUUCUAACACCGCCAG [gtspaired]”: -0.389; “UUUUUUUUUUGAGACGGGCACUGUCUCCGG [tttttgagapaired]”: 1.

Take “UUUUUUUUUUGAGACUGAGACAGUCUUCUA [tttttgagapaired]”: the binding signal (log2 fold change) turned out to be 0.266.

With “UUUUUUUUUUGAGAGUGUUGCAUUCUCCUA [tttttgagapaired]”, the binding signal (log2 fold change) worked out at 0.24. Next, “UUUUUUUUUUGAGAGGGUAUCCCUCUCCUA [tttttgagapaired]”: 0.0981. As for “GUGUGGUGUGUUGGACCCUAACACAUCGCA [gtspaired]”, the binding signal (log2 fold change) is -0.417. Take “UUUUUUUUUUGAGAGCGGUGCGCUCUCCGG [tttttgagapaired]”: the binding signal (log2 fold change) is 0.214.

In the case of “UUUUUUUUUUGAGACGGAGUCCGUCUCCUA [tttttgagapaired]”, the binding signal (log2 fold change) was 0.577. Under “GGUUGGUGUGUUGGACCCUAACACAUCAGC [gtspaired]” stands -0.402; under “GUGUGUGGUGUUGGCGUCUAACACCGCGCG [gtspaired]”, -0.607; under “GUGUGUUGUGUUGGCACCUAACACAACGCG [gtspaired]”, -0.483. Next, “UUUUUUUUUUGAGAGGGACGCCCUCUCCUA [tttttgagapaired]”: 0.613; “GUGGUGUGUGUUGGAGCCUAACACACGCCA [gtspaired]”: -0.205; “UUUUUUUUUUGAGACGGGGUCCGUCUCCUG [tttttgagapaired]”: 0.77.

With “UUUUUUUUUUGAGACGGUGGCCGUUUCCUG [tttttgagapaired]”, the binding signal (log2 fold change) came to 0.965. Next, “UUUUUUUUUUGAGAUCGGGCCGAUCUCCUG [tttttgagapaired]”: 0.561; “GUGUGGUGUGUUGGUCUCUAACACACCAUA [gtspaired]”: -0.472. Under “GUGUGGUGUGUUGGACUCUAACACACUACA [gtspaired]” stands -0.373; under “UUUUUUUUUUGAGACCGCGGCGGUCUCCUA [tttttgagapaired]”, 0.867; under “GUGUGGUGUGUUGGUUCCUAACACAUCGCG [gtspaired]”, -0.884. Under “GUGUGUGGUGUUGGUACCUAACACCGCGCG [gtspaired]” stands -0.497; under “UUUUUUUUUUGAGAACGUGACGUUCUUCUG [tttttgagapaired]”, 0.506. On to “UUUUUUUUUUGAGAUGGUUCCCAUCUCCAG [tttttgagapaired]”, for which the binding signal (log2 fold change) came out at 0.123.

As to “UUUUUUUUUUGAGAGGGCUCCCCUUUCCAG [tttttgagapaired]”, the binding signal (log2 fold change) was 0.696. Under “GUGUGGUGUGUUGGUCCCUAACACAUCGCA [gtspaired]” stands -0.589.

In the case of “GUGUGUGGUGUUGGACCCUAACACCGCACG [gtspaired]”, the binding signal (log2 fold change) was -0.365. Under “GUGUGGUGUGUUGGAUCCUAACACAUCACA [gtspaired]” stands -0.785.

Take “GGUUGUUGUGUUGGCCUCUAACACAACGAC [gtspaired]”: the binding signal (log2 fold change) is 0.0417. Take “UUUUUUUUUUGAGAGCGUAUCGCUCUCCUA [tttttgagapaired]”: the binding signal (log2 fold change) was -0.0803.

On to “GUGGUGUGUGUUGGUUCCUAACACACGCCG [gtspaired]”, for which the binding signal (log2 fold change) is -0.249. Next, “UUUUUUUUUUGAGAGGGGGUCCCUCUCCGG [tttttgagapaired]”: 0.859. Next, “UUUUUUUUUUGAGACGGAAGCCGUUUCCUG [tttttgagapaired]”: 0.52. “GGUUGUGGUGUUGGCCCCUAACACCAUAAC [gtspaired]”: the binding signal (log2 fold change) was -0.122. As for “UUUUUUUUUUGAGAUCGGGCCGAUCUCCUA [tttttgagapaired]”, the binding signal (log2 fold change) turned out to be 0.323. Under “GUGUGUGGUGUUGGCCUCUAACACCGCACA [gtspaired]” stands -0.178; under “UUUUUUUUUUGAGACUGUGUCAGUUUCCAG [tttttgagapaired]”, 0.721. Next, “UUUUUUUUUUGAGAGCGGUGCGUUCUUCUA [tttttgagapaired]”: 0.498; “GGUGUUGGUGUUGGCCUCUAACACCAGCGC [gtspaired]”: -0.537.

Take “GUGGUGUGUGUUGGCGCCUAACACACAUCA [gtspaired]”: the binding signal (log2 fold change) is -0.335. “UUUUUUUUUUGAGAUGGACUCUAUCUCCGG [tttttgagapaired]”: the binding signal (log2 fold change) turned out to be 0.0974. Regarding “GGUGGUGGUGUUGGUACCUAACACCAUCGC [gtspaired]”, the binding signal (log2 fold change) was -0.329. With “UUUUUUUUUUGAGACCGAUUCGGUCUCCAG [tttttgagapaired]”, the binding signal (log2 fold change) was found to be 0.00113. Next, “UUUUUUUUUUGAGACUGAAUCAGUCUCCUG [tttttgagapaired]”: 0.123; “UUUUUUUUUUGAGACUGUAUCAGUCUCCUG [tttttgagapaired]”: 0.298; “GGUGGUGGUGUUGGCUUCUAACACCGCUAC [gtspaired]”: -0.643. Under “GGUGUGUGUGUUGGAGCCUAACACAUACGC [gtspaired]” stands -0.545; under “UUUUUUUUUUGAGAGCGAAGCGUUCUCCAG [tttttgagapaired]”, 0.121; under “UUUUUUUUUUGAGAUCGAGGCGAUCUUCUG [tttttgagapaired]”, 0.176. Next, “UUUUUUUUUUGAGAGGGUGACCCUCUUCUA [tttttgagapaired]”: 0.0182; “UUUUUUUUUUGAGACGGAAACCGUCUCCUA [tttttgagapaired]”: 0.0242.

In the case of “UUUUUUUUUUGAGAUGGGGACCAUCUCCGG [tttttgagapaired]”, the binding signal (log2 fold change) was 0.356. Next, “UUUUUUUUUUGAGACUGCUCCAGUCUCCGG [tttttgagapaired]”: 0.88; “UUUUUUUUUUGAGACGGGGGCUGUCUCCUG [tttttgagapaired]”: 1.08. Next, “UUUUUUUUUUGAGAGCGGGACGCUCUCCUG [tttttgagapaired]”: 0.418; “UUUUUUUUUUGAGAGGGUACCCCUCUUCUG [tttttgagapaired]”: 0.227; “UUUUUUUUUUGAGACUGGGUCAGUCUCCAG [tttttgagapaired]”: 0.335. Under “GUGUGUGGUGUUGGUACCUAACACCACGCG [gtspaired]” stands -0.932. As for “GUGUGUGGUGUUGGCGCCUAACACCGCACA [gtspaired]”, the binding signal (log2 fold change) is -0.351. Next, “UUUUUUUUUUGAGACGGUUUCUGUCUUCUG [tttttgagapaired]”: 0.494. With “UUUUUUUUUUGAGACGGCGACCGUCUCCUG [tttttgagapaired]”, the binding signal (log2 fold change) was 0.539. Under “UUUUUUUUUUGAGAUCGGGACGGUCUUCUA [tttttgagapaired]” stands 0.339.
